Earlier results as cited in patent US12097202B2 (Kadmon Corporation, LLC, priority 2022, dated 2024).

Tested on: patients with cGVHD
Details: in vivo; cited from earlier work

In the case of C=CC(=O)N1CCC[C@@H](n2nc(-c3ccc(Oc4ccccc4)cc3)c3c(N)ncnc32)C1 [ibrutinib], the “discontinuation rate because of treatment-emergent adverse events (TEAEs)” value is listed as 43%.
